Measured values from PubChem BioAssay AID504339 (National Center for Advancing Translational Sciences (NCATS), 2011).
About 17,000 (4.4%) of roughly 390,000 compounds were called active. Inconclusive results, whose numbers are uncertain, are shown with a selection of clear calls. Calls come from the whole dose curve; as a rule, active = well fitted inhibition curve with a large enough effect; inconclusive = small, poorly fitted or top-dose-only effect; inactive = no such curve, though single readings can be large or run the other way. Potencies beside an inconclusive call are fits to weak or partial responses and may not hold up. The source holds several records for some structures; these can differ, active in one and inactive in another.
% is set by controls: 0 for no effect and ±100 for the full control effect; potency is the fitted concentration of half-maximal effect; tags give direction and shape of the fitted curve.
Note: nearly all actives have a fitted effect of over 50% in size.

What follows are molecules tested against Lysine-specific demethylase 4A (Homo sapiens) (UniProt O75164) (assay: qHTS Assay for Inhibitors of JMJD2A-Tudor Domain). Conditions: AlphaScreen JMJD2A-Tudor / H3K4me3 peptide binding; activity change, negative = inhibition: at 114 µM (top of the series).
UniProt O75164, sequence (O75164 whole entry, looked up, the tested form may be a part): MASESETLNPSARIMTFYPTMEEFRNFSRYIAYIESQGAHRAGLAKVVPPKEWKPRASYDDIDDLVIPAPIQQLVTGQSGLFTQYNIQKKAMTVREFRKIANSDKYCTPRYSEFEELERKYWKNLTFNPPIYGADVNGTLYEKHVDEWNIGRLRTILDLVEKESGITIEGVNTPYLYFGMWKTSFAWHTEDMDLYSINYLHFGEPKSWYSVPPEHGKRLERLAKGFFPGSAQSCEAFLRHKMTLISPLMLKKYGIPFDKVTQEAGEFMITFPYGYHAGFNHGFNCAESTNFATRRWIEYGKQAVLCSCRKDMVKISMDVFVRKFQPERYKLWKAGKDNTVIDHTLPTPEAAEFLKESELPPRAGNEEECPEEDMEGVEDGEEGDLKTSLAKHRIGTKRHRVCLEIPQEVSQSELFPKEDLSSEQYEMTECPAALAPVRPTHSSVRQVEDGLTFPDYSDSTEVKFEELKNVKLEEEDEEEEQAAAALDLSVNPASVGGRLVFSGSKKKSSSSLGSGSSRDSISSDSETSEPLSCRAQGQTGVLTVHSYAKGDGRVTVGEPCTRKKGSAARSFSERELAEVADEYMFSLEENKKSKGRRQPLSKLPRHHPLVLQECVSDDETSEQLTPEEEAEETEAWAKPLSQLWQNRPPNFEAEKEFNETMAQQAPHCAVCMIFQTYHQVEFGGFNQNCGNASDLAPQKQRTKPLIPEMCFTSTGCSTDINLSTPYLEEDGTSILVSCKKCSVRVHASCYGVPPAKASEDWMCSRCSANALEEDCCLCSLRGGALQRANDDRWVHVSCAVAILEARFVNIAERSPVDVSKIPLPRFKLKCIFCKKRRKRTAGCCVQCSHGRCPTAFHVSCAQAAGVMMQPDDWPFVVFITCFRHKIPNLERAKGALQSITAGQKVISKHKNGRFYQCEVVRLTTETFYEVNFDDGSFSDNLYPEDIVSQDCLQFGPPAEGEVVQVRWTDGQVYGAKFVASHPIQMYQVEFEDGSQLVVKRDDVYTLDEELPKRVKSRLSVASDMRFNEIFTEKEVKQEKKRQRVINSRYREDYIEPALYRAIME
COc1ccc(OC)c(NC(=O)CSc2sc3c(O)cc(=O)[nH]c3c2C#N)c1 was tested, and the Potency was active: 15.8 µM. In the case of Cc1ccc(CSC2=Nc3ccccc3C3=NC(CCC(=O)NCCc4ccccc4)C(=O)N23)cc1 (stereo not given), the “activity change, negative = inhibition” value is reported as inactive: -18%. Cc1cccc(-n2ccnc2SCC(=O)N2CCCc3ccccc32)c1C was tested, and the Potency was inconclusive: 56.2 µM [inhibitor, partial curve]. Cc1[nH]c2ccc(C(=O)OC(C)C(=O)NC3(C#N)CCCCC3)cc2c1C (stereo not given) was tested, and the Potency was inconclusive: 39.8 µM [inhibitor, full curve, poor fit]. Cc1ccc(C(=O)NCCSc2c(C)[nH]c3ccccc23)cc1C was tested, and the Potency was inconclusive: 25.1 µM [inhibitor, full curve, poor fit]. COc1ccc(-c2nc(S(=O)(=O)c3ccc(Cl)cc3)c(N3CCCCCC3)o2)cc1 was tested, and the Potency was active: 56.2 µM. For Cc1cc(C(=O)NC(Cc2c[nH]c3ccccc23)C(=O)O)c(C)o1 (stereo not given), the “activity change, negative = inhibition” value was inactive: 6.8%. For Cc1ccc(-c2nn(CCC(=O)Nc3ccc(Cl)c(Cl)c3)c(=O)c3ccccc23)cc1, the “activity change, negative = inhibition” value was inactive: -14.6%. For CN(C)C(=O)CCc1ccc2c3c([nH]c2c1)[C@]1(CCc2ccccc2)[C@@H](C(=O)N2CCCCC2)C[C@H](CC(=O)NCc2cccc(C(F)(F)F)c2)C(=O)N1CC3, the Potency was inconclusive: 56.2 µM [inhibitor, partial curve]. In the case of O=[N+]([O-])c1ccc(/C=N/n2c(C3CCCCC3)n[nH]c2=S)cc1, the Potency is reported as active: 89.1 µM. For CC(=O)Nc1ccc(C(=O)Nc2nc(-c3cccnc3)cs2)cc1, the “activity change, negative = inhibition” value was inactive: -18%. O=C(COc1ccccc1[N+](=O)[O-])Nc1cccc(Cl)c1N1CCOCC1 was tested, and the Potency was inconclusive: 44.7 µM [inhibitor, partial curve]. With O=C(O)CSc1nnc(COc2ccc(Br)cc2)n1-c1ccccc1 the “activity change, negative = inhibition” value was inactive: -16.4%. For O=C(CC(c1cccs1)N1Cc2ccccc2C1=O)Nc1ccccc1F (stereo not given), the “activity change, negative = inhibition” value was inactive: -12.1%. With Cc1ccc(OCC(=O)N2CCC(N3CC(C)CC(C)C3)CC2)cc1 (stereo not given) the Potency was active: 1.58 µM. For CCCOc1ccc(CC(=O)NCC2(c3ccccc3)CCOCC2)cc1OC, the Potency was inconclusive: 100 µM [inhibitor, single point]. O=C(CCNS(=O)(=O)c1cccc2nonc12)NC1CCCCCC1 was tested, and the Potency was inconclusive: 50.1 µM [inhibitor, partial curve, poor fit]. For CC#CCN1c2ccccc2[C@]23C[C@@H](C(=O)OC)N(C(=O)NC4CCCCC4)C2=NC(C(=O)OC)=C(C(=O)OC)[C@H]13, the Potency was inconclusive: 89.1 µM [inhibitor, partial curve]. For S=c1[nH]nc(-c2ccco2)n1/N=C/c1ccc(Cl)c(Cl)c1, the Potency was active: 79.4 µM. With Cc1nc2scc(C)n2c(=O)c1S(=O)(=O)Nc1ccc(N2CCN(C(=O)C(C)C)CC2)cc1 the Potency was active: 39.8 µM. With CC1CC(C)CN(C(=O)c2ccc(-c3ccc([N+](=O)[O-])cc3)o2)C1 (stereo not given) the Potency was active: 44.7 µM. In the case of CCN(CC)c1ccc(NC(=O)COC(=O)/C=C/c2nc3ccccc3s2)cc1, the Potency is reported as inconclusive: 14.1 µM [inhibitor, full curve]. For Cc1ccc(NC(=O)CSc2nc3c(c(=O)[nH]2)CN(Cc2ccccc2)CC3)cc1Cl, the “activity change, negative = inhibition” value was inactive: -22.5%. CC(=O)N1c2ccccc2C(=O)C1N1CCN(c2cccc(C)c2C)CC1 (stereo not given) was tested, and the “activity change, negative = inhibition” value was inactive: -2.27%. For O=C(Cn1nnc(-c2ccccc2)n1)N/N=C/c1cc([N+](=O)[O-])ccc1O, the Potency was inconclusive: 89.1 µM [inhibitor, single point]. For CCOC(=O)c1c(NC(=O)C2CCCO2)sc(C(=O)OC(C)(C)C)c1C (stereo not given), the Potency was inconclusive: 79.4 µM [inhibitor, partial curve]. In the case of COc1ccc(Cl)cc1NC(=O)CN(C)C(=O)CCc1nc2ccccc2c(=O)[nH]1, the “activity change, negative = inhibition” value is reported as inactive: 7.09%. For CCC(=O)N/N=C(\C)CC(=O)Nc1ccc2ccccc2c1, the Potency was inconclusive: 79.4 µM [inhibitor, partial curve]. With COc1ccc(CN2CCCCCC2)cc1Br the Potency was active: 3.55 µM. For CC(=O)c1c(C(C)=O)c(C)n(NC(=O)c2ccncc2)c1C, the “activity change, negative = inhibition” value was inactive: -33.5%. CCCN(CCC)CCCNC(=O)c1cc2c(-c3ccc(Cl)cc3)nn(C)c2s1 was tested, and the Potency was inconclusive: 2.51 µM [inhibitor, partial curve, poor fit]. With COc1cc(CNCc2ccc(OC)cc2OC)cc(OC)c1 the Potency was active: 28.2 µM. For NN=C1c2ccccc2-c2ccc(N)cc21, the Potency was inconclusive: 31.6 µM [inhibitor, partial curve]. CCO[C@H]1OC(C(=O)N2CCN(Cc3ccc4c(c3)OCO4)CC2)=C[C@@H](C2CCCCC2)[C@@H]1CCCO was tested, and the Potency was inconclusive: 63.1 µM [inhibitor, partial curve]. For COC(=O)C1=C(CSc2nc3c(cc2C#N)CN(C)CC3)OC(N)=C(C#N)C1c1ccc(F)cc1 (stereo not given), the Potency was inconclusive: 89.1 µM [inhibitor, partial curve]. For Oc1ccc(Br)cc1C1C=C(c2ccc3c(c2)OCO3)NC(c2c(F)cccc2Cl)N1 (stereo not given), the Potency was inconclusive: 56.2 µM [inhibitor, partial curve]. For O=C(c1ccco1)N1CCN(Cc2cccnc2)CC1, the Potency was active: 3.55 µM. With COc1ccc2c(c1)C1=C(CC2)C(c2ccc(C)cc2)NC(=S)N1 (stereo not given) the Potency was inconclusive: 39.8 µM [inhibitor, full curve]. For COc1ccc(-c2nnc(SCC(=O)NC(=O)Cc3ccccc3)n2C)cc1, the “activity change, negative = inhibition” value was inactive: 4.7%. In the case of O=C(O)C[C@H]1c2cc(F)ccc2S(=O)(=O)N1C1CCN(Cc2ccccc2)CC1, the Potency is reported as inconclusive: 28.2 µM [inhibitor, single point]. CNC(=O)c1[nH]nc2c1CCc1cc(OC)ccc1-2 was tested, and the Potency was inconclusive: 56.2 µM [inhibitor, partial curve]. With COc1cccc(CN2CCN(C(=O)c3ccco3)CC2)c1 the Potency was active: 28.2 µM. In the case of CC1=C(C(=O)OCc2ccccc2)C(c2ccc(N(C)C)cc2)NC(=O)N1 (stereo not given), the Potency is reported as inconclusive: 14.1 µM [inhibitor, full curve]. For CC(C)=C1C(=O)NN(c2ccc(F)c(Cl)c2)C1=O, the “activity change, negative = inhibition” value was inactive: -29.1%. For C=CCNc1oc(-c2ccc(Cl)cc2)nc1C#N, the Potency was inconclusive: 15.8 µM [inhibitor, full curve, poor fit]. In the case of CCc1nc(CNC(=O)c2cc(OC)c(OC)c(OC)c2)no1, the activity change, negative = inhibition is reported as inactive: -17.1% [at 11.4 µM]. In the case of CN1CCN(S(=O)(=O)c2ccc(NC(=S)NC(=O)c3ccccc3)cc2)CC1, the “activity change, negative = inhibition” value is reported as inactive: -28.5%. In the case of O=C(NC(=S)Nc1ccccc1N1CCCC1)c1ccc([N+](=O)[O-])cc1, the Potency is reported as active: 25.1 µM. For COc1ccc(CCNC(=O)CN2C(=O)CCSc3ccccc32)c(OC)c1, the Potency was inconclusive: 50.1 µM [inhibitor, partial curve]. With COc1ccccc1N1CCN(CCCNC(=O)c2cnn(-c3ccccc3Cl)c2C2CCN(C(=O)OC(C)(C)C)CC2)CC1 the Potency was inconclusive: 39.8 µM [inhibitor, partial curve]. With CCN(CC)c1ccc(NC(=O)COc2ccccc2C)cc1S(=O)(=O)Nc1ccccc1OC the Potency was inconclusive: 70.8 µM [inhibitor, single point]. CC(=O)Nc1ccc(S(=O)(=O)C(C#N)c2nc3ccccc3nc2NCCO)cc1 (stereo not given) was tested, and the activity change, negative = inhibition was inactive: -11% [at 11.4 µM]. With COc1ccc(C(=O)N2CCCC(Nc3ccc(C)c(C)c3)C2)cc1 (stereo not given) the Potency was inconclusive: 63.1 µM [inhibitor, partial curve]. Cc1ccc(SCC(=O)Nc2ccc(-c3nnc(-c4ccco4)o3)cc2)cc1 was tested, and the Potency was inconclusive: 79.4 µM [inhibitor, partial curve]. COc1ccc(CNC(=O)c2ccc[nH]2)cc1Cl was tested, and the “activity change, negative = inhibition” value was inactive: 0.669%. COc1nonc1NC(=O)CSc1nc2ccccc2[nH]1 was tested, and the activity change, negative = inhibition was inactive: -21.2% [at 11.4 µM]. With NC(=O)CC(NC(=O)c1cccc(Br)c1)c1ccc(NC2CCN(Cc3ccccc3)CC2)c([N+](=O)[O-])c1 (stereo not given) the Potency was inconclusive: 39.8 µM [inhibitor, partial curve]. For O=C(Nc1nc2c(s1)CCc1ccccc1-2)c1ccco1, the Potency was inconclusive: 89.1 µM [inhibitor, partial curve, poor fit]. CC(=O)NS(=O)(=O)c1ccc(NC(=S)Nc2ccccc2)cc1 was tested, and the “activity change, negative = inhibition” value was inactive: 8.64%. In the case of CC(=O)c1cccc(OC(=O)c2cc(S(=O)(=O)N3CCOCC3)ccc2N2CCCC2)c1, the Potency is reported as inconclusive: 0.316 µM [inhibitor, full curve, poor fit]. For OCC(CO)(CO)N=Cc1c(O)ccc2ccccc12, the Potency was inconclusive: 63.1 µM [inhibitor, partial curve]. For COc1ccc(CCNC(=O)COC(=O)C2CC2)cc1OC, the “activity change, negative = inhibition” value was inactive: -4.86%. With COc1cccc(OCC(=O)NNC(=O)c2cnccn2)c1 the Potency was inconclusive: 63.1 µM [inhibitor, partial curve, poor fit]. CCCN(CCC)C1=CC(=[N+]2CCCC2)CC(C)(C)C1 was tested, and the Potency was inconclusive: 39.8 µM [inhibitor, single point]. In the case of COc1cc2nc(N(CCCN(C)C)C(=O)c3ccc(C(=O)c4ccccc4)cc3)sc2cc1OC, the activity change, negative = inhibition is reported as inconclusive: -46.2% [inhibitor]. COc1cc([N+](=O)[O-])ccc1NC(=O)NCC1CCN(Cc2ccc(Cl)cc2)CC1 was tested, and the Potency was inconclusive: 44.7 µM [inhibitor, partial curve]. In the case of CCOc1ccccc1/C=C/c1nc2ccccc2[nH]c1=O, the Potency is reported as inconclusive: 17.8 µM [inhibitor, full curve]. In the case of Oc1cccc(C2c3[nH]c4ccccc4c3CCN2Cc2ccoc2)c1 (stereo not given), the Potency is reported as inconclusive: 50.1 µM [inhibitor, partial curve]. For COc1cccc(CC(=O)OC(C)C(=O)Nc2ccc(N3CCOCC3)cc2)c1 (stereo not given), the “activity change, negative = inhibition” value was inactive: -25.2%. For c1ccc(-n2cnc3cc(NCc4cccs4)ccc32)cc1, the Potency was active: 56.2 µM.
